Results from the supplement of paper PMC4967469.
By IC50 is meant the dose at which the fit gives 50% viability; where the fit passes the top or lowest dose, that dose stands as a limit. AUC is the area under the same curve over the 256-fold range up to the top dose, as a fraction: 1 means no effect, lower means more sensitive. For part of these data: Where the top dose is marked as inferred, it is not printed in the source and was worked back from the curve model. For part of these data: Where an entry number is given, a second screen of the drug exists; the two often differ.

Assays:
Assay in all cases: Viability of human cancer cell lines after 72 h of drug (GDSC screen)
SB-505124 = compound: Cc1cccc(-c2[nH]c(C(C)(C)C)nc2-c2ccc3c(c2)OCO3)n1 [SB-505124]; details: top dose 10 µM; top dose inferred
Procedure: (§1)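 Human cancer cell lines in 384-well plates, medium with 10% serum, drug for 72 h over a 256-fold dose range (nine 2-fold or five 4-fold steps up to the top dose). Adherent lines were fixed and stained with the nucleic acid dye Syto60, suspension lines read with resazurin; signal relative to control wells, capped at 0 and 100%. One two-parameter sigmoid per drug and line, fitted in a mixed model over all curves with the slope shared within a line.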

UNC0638 = compound: COc1cc2c(NC3CCN(C(C)C)CC3)nc(C3CCCCC3)nc2cc1OCCCN1CCCC1 [UNC0638]
Procedure: as §1

BX-795 = compound: O=C(NCCCNc1nc(Nc2cccc(NC(=O)N3CCCC3)c2)ncc1I)c1cccs1 [BX-795]; details: top dose 5 µM; top dose inferred
Procedure: as §1

WH-4-023 = compound: COc1ccc(N(C(=O)Oc2c(C)cccc2C)c2ccnc(Nc3ccc(N4CCN(C)CC4)cc3)n2)c(OC)c1 [WH-4-023]; details: top dose 5.12 µM; top dose inferred
Procedure: as §1

GSK690693 = compound: CCn1c(-c2nonc2N)nc2c(C#CC(C)(C)O)ncc(OC[C@H]3CCCNC3)c21 [GSK690693]; details: top dose 10.24 µM; top dose inferred
Procedure: as §1

Tretinoin = compound: CC1=C(/C=C/C(C)=C/C=C/C(C)=C/C(=O)O)C(C)(C)CCC1 [Tretinoin]; details: top dose 10 µM; top dose inferred
Procedure: as §1

PI-103 = compound: Oc1cccc(-c2nc(N3CCOCC3)c3oc4ncccc4c3n2)c1 [PI-103]; details: top dose 10.24 µM
Procedure: as §1

[1] = top dose 20 µM, screen: GDSC drug entry 1236, top dose inferred
[2] = top dose 40 µM, screen: GDSC drug entry 245

Cell Line	AUC (SB-505124)	IC50 (SB-505124)	AUC (UNC0638; [1])	IC50 (UNC0638; [1])	AUC (UNC0638; [2])	IC50 (UNC0638; [2])	AUC (BX-795)	IC50 (BX-795)	AUC (WH-4-023)	IC50 (WH-4-023)	AUC (GSK690693)	IC50 (GSK690693)	AUC (Tretinoin)	IC50 (Tretinoin)	AUC (PI-103)	IC50 (PI-103)
MMAC-SF (melanoma, adherent)	0.964	> 10 µM	0.814	11.5 µM	0.751	13.7 µM	0.982	> 5 µM	0.967	> 5.12 µM	0.963	> 10.2 µM	0.984	> 10 µM	0.663	1.85 µM
MN-60 (B-cell leukaemia, suspension)	0.958	> 10 µM	0.871	> 20 µM	0.757	14.3 µM	0.984	> 5 µM	0.981	> 5.12 µM	0.924	> 10.2 µM	0.975	> 10 µM	0.201	0.0801 µM
MOLP-8 (myeloma, suspension)	0.891	> 10 µM	0.615	2.56 µM	0.528	2.97 µM	0.805	2.41 µM	0.948	> 5.12 µM	0.635	1.49 µM	0.987	> 10 µM	0.081	< 0.04 µM
MOLT-4 (lymphoblastic leukaemia, suspension)	0.966	> 10 µM	0.671	3.39 µM	0.61	4.72 µM	0.706	1.04 µM	0.936	> 5.12 µM	0.504	0.654 µM	0.974	> 10 µM	0.266	0.161 µM
MONO-MAC-6 (acute myeloid leukaemia, suspension)	0.981	> 10 µM	0.816	12 µM	0.618	5.38 µM	0.394	0.157 µM	0.971	> 5.12 µM	0.805	5.52 µM	0.709	2.53 µM	0.266	0.131 µM
MPP-89 (mesothelioma, adherent)	0.971	> 10 µM	0.871	> 20 µM	0.959	> 40 µM	0.937	> 5 µM	0.333	0.0949 µM	0.982	> 10.2 µM	0.874	> 10 µM	0.887	> 10.2 µM
MRK-nu-1 (breast, suspension)	0.982	> 10 µM	0.932	> 20 µM	0.878	34.8 µM	0.98	> 5 µM	0.811	2.46 µM	0.99	> 10.2 µM	0.987	> 10 µM	0.585	1.07 µM
MS-1 (small cell lung carcinoma, suspension)	0.99	> 10 µM	0.844	12.2 µM	0.586	4.19 µM	0.957	> 5 µM	0.99	> 5.12 µM	0.9	> 10.2 µM	0.981	> 10 µM	0.497	0.629 µM
MSTO-211H (mesothelioma, adherent)	0.99	> 10 µM	0.785	7.7 µM	0.974	> 40 µM	0.909	> 5 µM	0.922	> 5.12 µM	0.991	> 10.2 µM	0.927	> 10 µM	0.836	5.88 µM
MV-4-11 (leukaemia, suspension)	0.989	> 10 µM	0.808	8.21 µM	0.576	3.87 µM	0.162	0.0383 µM	0.983	> 5.12 µM	0.879	7.34 µM	0.085	< 0.0391 µM	0.244	0.139 µM
MZ1-PC (pancreas, adherent)	0.977	> 10 µM	0.798	12.3 µM	0.588	4.61 µM	0.872	> 5 µM	0.486	0.291 µM	0.894	> 10.2 µM	0.964	> 10 µM	0.436	0.41 µM
MZ2-MEL (melanoma, adherent)	0.97	> 10 µM	0.874	> 20 µM	0.838	34 µM	0.83	3.89 µM	0.831	4.05 µM	0.965	> 10.2 µM	0.98	> 10 µM	0.358	0.241 µM
Mo-T (hairy cell leukaemia, suspension)	0.977	> 10 µM	0.811	10.9 µM	0.685	8.35 µM	0.925	> 5 µM	0.983	> 5.12 µM	0.876	> 10.2 µM	0.941	> 10 µM	0.306	0.181 µM
NAMALWA (Burkitt lymphoma, suspension)	0.986	> 10 µM	0.792	7.52 µM	0.669	6.8 µM	0.969	> 5 µM	0.909	> 5.12 µM	0.68	1.85 µM	0.981	> 10 µM	0.145	0.0659 µM
NB1 (neuroblastoma, semi-adherent)	0.955	> 10 µM	0.832	14.7 µM	0.721	11.4 µM	0.931	> 5 µM	0.951	> 5.12 µM	0.921	> 10.2 µM	0.973	> 10 µM	0.863	> 10.2 µM
NB5 (neuroblastoma, adherent)	0.977	> 10 µM	0.94	> 20 µM	0.883	> 40 µM	0.796	2.37 µM	0.981	> 5.12 µM	0.982	> 10.2 µM	0.912	> 10 µM	0.831	6.61 µM
NB6 (neuroblastoma, adherent)	0.981	> 10 µM	0.978	> 20 µM	0.807	26.4 µM	0.811	3.44 µM	0.734	1.76 µM	0.899	> 10.2 µM	0.982	> 10 µM	0.382	0.28 µM
NB10 (neuroblastoma, adherent)	0.978	> 10 µM	0.983	> 20 µM	0.859	31.8 µM	0.882	> 5 µM	0.985	> 5.12 µM	0.983	> 10.2 µM	0.88	9.99 µM	0.791	4.48 µM
NB13 (neuroblastoma, adherent)	0.99	> 10 µM	0.967	> 20 µM	0.822	19.9 µM	0.871	3.8 µM	0.946	> 5.12 µM	0.99	> 10.2 µM	0.35	0.254 µM	0.857	6.85 µM
NB14 (neuroblastoma, adherent)	0.958	> 10 µM	0.823	10.9 µM	0.989	> 40 µM	0.668	0.891 µM	0.978	> 5.12 µM	0.988	> 10.2 µM	0.918	> 10 µM	0.916	> 10.2 µM
NB(TU)1-10 (neuroblastoma, adherent)	0.993	> 10 µM	0.993	> 20 µM	0.639	5.72 µM	0.992	> 5 µM	0.98	> 5.12 µM	0.993	> 10.2 µM	0.985	> 10 µM	0.963	> 10.2 µM
NCI-H23 (lung adenocarcinoma, adherent)	0.985	> 10 µM	0.778	8.03 µM	0.956	> 40 µM	0.894	> 5 µM	0.985	> 5.12 µM	0.954	> 10.2 µM	0.939	> 10 µM	0.978	> 10.2 µM
NCI-H69 (small cell lung carcinoma, suspension)	0.956	> 10 µM	0.732	6.24 µM	0.96	> 40 µM	0.892	> 5 µM	0.983	> 5.12 µM	0.861	> 10.2 µM	0.984	> 10 µM	0.521	0.736 µM
NCI-H82 (small cell lung carcinoma, suspension)	0.965	> 10 µM	0.817	10.4 µM	0.845	26.5 µM	0.741	1.47 µM	0.972	> 5.12 µM	0.98	> 10.2 µM	0.981	> 10 µM	0.782	4.05 µM
NCI-H187 (small cell lung carcinoma, suspension)	0.983	> 10 µM	0.981	> 20 µM	0.596	4.7 µM	0.887	> 5 µM	0.987	> 5.12 µM	0.815	6.22 µM	0.988	> 10 µM	0.569	1 µM
NCI-H209 (small cell lung carcinoma, suspension)	0.977	> 10 µM	0.791	9.74 µM	0.974	> 40 µM	0.852	4.3 µM	0.982	> 5.12 µM	0.934	> 10.2 µM	0.952	> 10 µM	0.783	4.65 µM
NCI-H211 (small cell lung carcinoma, adherent)	0.962	> 10 µM	0.739	5.9 µM	0.575	3.99 µM	0.834	3.13 µM	0.929	> 5.12 µM	0.978	> 10.2 µM	0.964	> 10 µM	0.243	0.119 µM
